Experimental data as given in PubChem BioAssay AID504832 (National Center for Advancing Translational Sciences (NCATS), 2011).
In all, about 310,000 compounds went through this assay and about 18,000 (5.8%) were called active. The inconclusive results got no clear call from the source; some entries with a clear call stand among them for comparison. Calls come from the whole dose curve; as a rule, active = well fitted inhibition curve with a large enough effect; inconclusive = small, poorly fitted or top-dose-only effect, or another doubt; inactive = no such curve, though single readings can be large or run the other way. Potencies of inconclusive entries are left out as doubtful fits.
Potency is the fitted concentration of half-maximal effect; tags give direction and shape of the fitted curve.

Test: Primary qHTS for delayed death inhibitors of the malarial parasite plastid, 48 hour incubation
Conditions: P. falciparum luciferase growth in erythrocytes; series mostly up to 28.7 µM
In short: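 In quantitative HTS format, infected erythrocytes bearing luciferase-reporter parasites were treated for a single generation at 37 C. Luminescence after adding detection reagent served as the growth measure.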
With `COc1ccc(N2C(=O)CCC2=O)cc1` the Potency was “inactive”.
With `COc1ccc(C(=O)Nc2ccc(N3CCN(C(=O)c4ccccc4C)CC3)cc2)cc1` the Potency was inconclusive [inhibitor, partial curve].
In the case of `CC(=O)Oc1ccc(/C=C2/SC(=S)N(Cc3ccccc3)C2=O)cc1`, the Potency is reported as “inactive”.
In the case of `CC(C)(C)C(CN1CCCC1)OC(=O)c1ccccc1` (stereo not given), the Potency is reported as “inactive”.
With `CCCCCCCCCCCCOC(=O)C[N+](C)(C)C` the Potency was inconclusive [inhibitor, single point].
For `Cc1ccc(C)c(NC(=O)CCc2ccc(S(=O)(=O)NC3CCCCC3)cc2)c1`, the Potency was inconclusive [inhibitor, single point].
With `Cc1cc(C)c2cc(C(=O)Nc3ccccc3)[nH]c2c1` the Potency was inconclusive [inhibitor, partial curve].
For `COc1ccccc1OCCNC(=O)c1cccc(S(=O)(=O)N2CCN(Cc3ccccc3)CC2)c1`, the Potency was inconclusive [inhibitor, single point].
In the case of `Cc1cc(C)cc(NC(=O)c2ccc(Cn3nc(C)c(Cl)c3C)o2)c1`, the Potency is reported as inconclusive [inhibitor, single point].
For `COc1cc(Br)cc(Br)c1OCC(=O)N/N=C/c1c(C)n(C)n(-c2ccccc2)c1=O`, the Potency was “inactive”.
For `O=C(Cc1c(Cl)cccc1Cl)NCCc1ccc(Cl)cc1`, the Potency was “inactive”.
In the case of `COc1ccccc1CNC(=O)c1cc(-c2cccnc2)nc2ccccc12`, the Potency is reported as active: 10.4 µM.
For `COc1ccc(CCNC(=O)c2cccc(NC(=O)CC3SC(N4CCCCC4)=NC3=O)c2)cc1OC` (stereo not given), the Potency was active: 11.7 µM.
For `C/C(CCC(=O)OC[C@H]1O[C@H](C#Cc2ccccc2)C=C[C@@H]1Oc1ccc(C)cc1)=N\O[C@@H](C)CN1CCCCc2nc(C)c(C)cc21`, the Potency was active: 14.7 µM.
In the case of `COc1ccc(NC(=O)N(CCN2CCCC2)Cc2cc3cc(OC)c(OC)cc3[nH]c2=O)cc1`, the Potency is reported as active: 9.28 µM.
In the case of `COc1ccc(C(=O)NCCS(=O)(=O)N2CCc3ccccc3C2)c(OC)c1`, the Potency is reported as “inactive”.
In the case of `CCCc1ccc(OCc2ccc(C(=O)Nc3cccc(C)n3)o2)c(OC)c1`, the Potency is reported as inconclusive [inhibitor, single point].
For `COCCCC1CCN(C(=O)CCc2nnc(CCCCc3ccccc3)o2)CC1`, the Potency was inconclusive [inhibitor, single point].
For `Cc1cc(C)c(C#N)c(SCC(=O)Nc2cccc(S(=O)(=O)N3CCCC3)c2)n1`, the Potency was inconclusive [inhibitor, single point].
With `CCN1CCN(Cc2coc3ccc(C)cc3c2=O)CC1` the Potency was “inactive”.
In the case of `CCOC(=O)c1c(C)[nH]c(-c2csc(N)n2)c1C`, the Potency is reported as active: 2.94 µM.
For `O=C(c1ccc(N2CCN(C3CC(=O)N(Cc4cccs4)C3=O)CC2)cc1)c1cccnc1` (stereo not given), the Potency was inconclusive [inhibitor, single point].
In the case of `Nc1cccc(Nc2nc(OC(C(F)(F)F)C(F)(F)F)nc(OC(C(F)(F)F)C(F)(F)F)n2)c1`, the Potency is reported as inconclusive [inhibitor, partial curve].
For `CC(C)c1cc(CN2CCOCC2)cc(C(C)C)c1O`, the Potency was inconclusive [inhibitor, partial curve, poor fit].
For `COc1ccc(CCNS(=O)(=O)c2c(C)[nH]c(C)c2C(=O)N2CCCCC2)cc1OC`, the Potency was inconclusive [inhibitor, full curve, poor fit].
In the case of `C/C(CC(=O)NCc1ccc(F)cc1)=N\NC(N)=S`, the Potency is reported as inconclusive [inhibitor, single point].
With `CCCCC1=CC2=CC(=O)C(C)(OC(=O)CC)C(=O)C2=CN1C1CCCCC1` (stereo not given) the Potency was inconclusive [inhibitor, single point].
With `Cn1cc(/C=C(\NC(=O)c2ccccc2)C(=O)NCCCN2CCOCC2)c2ccccc21` the Potency was inconclusive [inhibitor, partial curve, poor fit].
With `COC(=O)CCC(=O)OC1(C)C(=O)C=C2C=C(C3CC3)N(CCN3CCOCC3)C=C2C1=O` (stereo not given) the Potency was inconclusive [inhibitor, partial curve, poor fit].
With `O=C(O)c1ccccc1N/N=C/c1c(Sc2nnnn2-c2ccccc2)nc2ccccn2c1=O` the Potency was inconclusive [inhibitor, full curve, poor fit].
For `Cc1ccc(C(=O)N/C(=C/c2cccnc2)C(=O)N2CCCCCC2)cc1`, the Potency was inconclusive [inhibitor, single point].
For `O=C1CCCN2N=C(SCC(=O)Nc3cccc(F)c3)SC2=N1`, the Potency was inconclusive [inhibitor, partial curve, poor fit].
In the case of `C/C(=N\NC(=O)C1CC1)c1cccc(NC(=O)c2cccc(Cl)c2)c1`, the Potency is reported as inconclusive [inhibitor, partial curve].
With `Cc1ccc(-c2[nH]ncc2/C=C(\C#N)C(=O)NC2CCCCC2)cc1` the Potency was inconclusive [inhibitor, partial curve, poor fit].
With `Cc1cc(OCC(=O)N(C(C)C)C(C)C)ccc1Cl` the Potency was inconclusive [inhibitor, full curve, poor fit].
For `COC(=O)CC1(C(=O)OC)Oc2ccc(Br)cc2C(=O)N1c1cc(Cl)c(Cl)cc1Cl` (stereo not given), the Potency was inconclusive [inhibitor, partial curve, poor fit].
For `CC1=C(C(=O)N2CCN(C(=O)c3ccco3)CC2)C2(CCC(C)CC2)OC1=O` (stereo not given), the Potency was “inactive”.
In the case of `COc1cccc(-n2c(O)c(C=NCc3ccc4c(c3)OCO4)c(=O)[nH]c2=O)c1`, the Potency is reported as “inactive”.
For `CCOC(=O)C1(CC2CCCCO2)CCN(Cc2nc(-c3cccs3)oc2C)CC1` (stereo not given), the Potency was inconclusive [inhibitor, single point].
With `O=C(O)CC(NC(=O)c1ccco1)c1ccco1` (stereo not given) the Potency was inconclusive [inhibitor, partial curve, poor fit].
With `CCN(CCn1cccn1)Cc1ccccc1OCC(O)CN1CCc2ccccc2C1` (stereo not given) the Potency was inconclusive [inhibitor, partial curve, poor fit].
In the case of `O=C(Nc1cc(S(=O)(=O)N2CCOCC2)ccc1N1CCCC1)c1cccnc1Cl`, the Potency is reported as “inactive”.
In the case of `Cc1ccc([N+](=O)[O-])cc1N(CC(=O)NCC1CCCO1)S(C)(=O)=O` (stereo not given), the Potency is reported as “inactive”.
In the case of `O=C(Cn1nnc2ccccc21)NNC(=O)c1ccccc1`, the Potency is reported as “inactive”.
With `O=C(CCc1ccccc1)Nc1nc2ccc(S(=O)(=O)N3CCOCC3)cc2s1` the Potency was inconclusive [inhibitor, partial curve].
In the case of `CCN(CC)S(=O)(=O)c1ccc(OCC(=O)NC(=O)Cc2ccccc2)c([N+](=O)[O-])c1`, the Potency is reported as “inactive”.
For `Cc1ccc(C(=O)c2cc([N+](=O)[O-])ccc2N2CCN(C)CC2)cc1`, the Potency was inconclusive [inhibitor, single point].
For `C[C@H]1c2cccc(O)c2C(O)=C2C(=O)[C@]3(O)C(O)=C(C(N)=O)C(=O)[C@@H](N(C)C)[C@@H]3[C@@H](O)[C@@H]21`, the Potency was active: 4.65 µM.
With `Cc1ccc(-c2cccc(C3CC=CC4C3C(=O)N(Cc3ccccc3)C4c3ccc4ccccc4c3)c2)cc1` (stereo not given) the Potency was inconclusive [inhibitor, partial curve].
For `CCOc1cc(CNCCO)ccc1OCC(=O)NC(C)(C)C`, the Potency was “inactive”.
With `CCOc1cc(C(=O)Nc2ccon2)cc(OCC)c1OCC` the Potency was “inactive”.
For `COc1ccc(C(=O)Nc2c(N)nc(SCC(=O)Nc3ccc(NC(C)=O)cc3)[nH]c2=O)cc1`, the Potency was active: 10.4 µM.
In the case of `COc1ccc(/C=N/NC(=O)CCn2cnc3ccccc32)cc1`, the Potency is reported as “inactive”.
For `O=c1[nH]c(C2CCN(S(=O)(=O)Cc3ccccc3)CC2)nc2c1nnn2Cc1ccccc1`, the Potency was active: 9.28 µM.
In the case of `CC(C)Oc1ccc(-c2nc(NCC3CCCO3)c3ccccc3n2)cc1` (stereo not given), the Potency is reported as inconclusive [inhibitor, partial curve, poor fit].
In the case of `Cc1ccc2nc(=O)c(NNc3ccccc3)cnc2c1`, the Potency is reported as “inactive”.
In the case of `C/C(=N\NC(=O)c1ccccc1F)c1cccc(NC(=O)c2ccccc2)c1`, the Potency is reported as “inactive”.
With `CCCCNC(=O)C1CCN(S(=O)(=O)N2CCOCC2)CC1` the Potency was “inactive”.
In the case of `CCc1cc2c(NCC3CCCO3)ncnc2s1` (stereo not given), the Potency is reported as “inactive”.
For `C/C(=N\NC(=O)c1ccc(Cn2cc(Br)cn2)o1)c1ccc(NC(=O)c2ccoc2C)cc1`, the Potency was inconclusive [inhibitor, partial curve, poor fit].
With `COc1ccc(CC(=O)Nc2nc(-c3ccc(F)c(F)c3)cs2)cc1` the Potency was “inactive”.
For `Cc1c(Cl)cccc1NC(=O)Nc1cc(C(C)(C)C)nn1C`, the Potency was inconclusive [inhibitor, partial curve, poor fit].
In the case of `Cc1csc(NC(=O)C(C)Oc2ccc(Br)cc2)n1` (stereo not given), the Potency is reported as inconclusive [inhibitor, single point].
For `O=C(COc1ccc(S(=O)(=O)NC2CCCCC2)cc1)NC1CCCCC1`, the Potency was active: 14.7 µM.
For `COc1cccc(CN(C)C(=O)CC23CC4CC(CC(C4)C2)C3)c1OC`, the Potency was inconclusive [inhibitor, single point].
With `CC(C)=CCCC1(C)C=Cc2c(c(C)cc3c2[nH]c2cc(O)ccc23)O1` (stereo not given) the Potency was active: 10.4 µM.
For `COc1cc(O)c(C(CC(=O)N2CCOCC2)c2ccc(N(C)C)cc2)c(OC)c1` (stereo not given), the Potency was inconclusive [inhibitor, partial curve].
In the case of `Cc1ccccc1C(=O)N1CCC(C(=O)Nc2nc3ccc(F)cc3s2)CC1`, the Potency is reported as inconclusive [inhibitor, single point].
In the case of `CC(=O)Nc1ccccc1C(=O)C(=O)Nc1ccccc1`, the Potency is reported as “inactive”.
In the case of `O=C(COc1coc(CN2CCc3ccccc3C2)cc1=O)Nc1ccc([N+](=O)[O-])cc1`, the Potency is reported as inconclusive [inhibitor, single point].
